The structures appear in SMILES notation. Hit rate of the full screen: of about 45,000 compounds, about 65 (0.1%) were called active. Calls follow the shape of the dose curve; as a rule, active = well fitted activation curve with a large enough effect; inconclusive = small, poorly fitted or top-dose-only effect; inactive = no such curve, though single readings can be large or run the other way. The list shows a part of the results.

UniProt P54803, sequence (P54803 whole entry, looked up): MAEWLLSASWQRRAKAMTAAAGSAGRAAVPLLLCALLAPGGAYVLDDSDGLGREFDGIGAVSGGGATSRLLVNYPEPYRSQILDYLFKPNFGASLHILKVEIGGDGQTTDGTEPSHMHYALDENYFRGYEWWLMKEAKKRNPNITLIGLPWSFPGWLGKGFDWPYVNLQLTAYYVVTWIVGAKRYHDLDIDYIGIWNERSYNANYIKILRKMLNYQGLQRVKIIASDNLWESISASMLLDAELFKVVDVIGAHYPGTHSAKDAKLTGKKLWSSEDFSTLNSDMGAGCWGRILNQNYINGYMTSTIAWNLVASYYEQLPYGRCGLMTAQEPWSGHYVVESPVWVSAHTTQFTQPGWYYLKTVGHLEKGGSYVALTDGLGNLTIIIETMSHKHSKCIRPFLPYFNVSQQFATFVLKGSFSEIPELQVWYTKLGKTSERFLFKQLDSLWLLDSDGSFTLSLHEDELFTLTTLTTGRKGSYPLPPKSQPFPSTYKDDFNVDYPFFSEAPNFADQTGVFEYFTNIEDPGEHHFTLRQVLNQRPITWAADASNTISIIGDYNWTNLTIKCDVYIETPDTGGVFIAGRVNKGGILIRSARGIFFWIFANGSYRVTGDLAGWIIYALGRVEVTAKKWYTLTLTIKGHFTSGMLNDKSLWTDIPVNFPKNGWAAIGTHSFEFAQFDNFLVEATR

This assay deals with Galactocerebrosidase (Homo sapiens) (UniProt P54803). Put plainly: A Novel Cell-Based Assay to Identify Small Molecules for B -Galactocerebrosidase. Also: 0% is about no effect; nearly all actives have a fitted effect of over 65% in size. Particulars: 145M-Twi-hGALC-G270D cells (Twitcher mouse brain line with human GALC G270D), HMU-beta-Gal fluorescence, 48 h; series mostly up to 57.5 µM; activation: at the top concentration. The method, boiled down:
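Fluorogenic HMU-b-Gal hydrolysis (0.1 mM final, pH 5.2 citrate-phosphate with 1 mg/mL sodium taurocholate; carbonate stop buffer) measures mutant GALC activity after compound treatment of live 145M-Twi Twitcher brain cells stably carrying human GALC-G270D, with wild-type GALC line alongside; activation sought.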
On to `COc1cccc(NC(=O)Nc2cccc(-c3cn4cccnc4n3)c2)c1`, for which the “activation” value is inactive: -8.84%.
In the case of `O=C(NCCc1ccccc1)c1cc(-c2ccc(Cl)cc2)on1`, the “activation” value was inactive: -11.2%.
Under `Cc1ccc(NC(=O)Nc2ccc3c(c2)N(C)C(=O)c2ccccc2S3)c(C)c1` stands inactive: 8.33%; under `COc1ccccc1NC(=O)c1c(NCc2ccc(OC)c(OC)c2OC)sc2c1CCCC2`, inactive: -11%.
Under `CCOC(=O)c1c(C)[nH]c(C)c1S(=O)(=O)NCC(=O)Nc1cc(C)ccc1OC` stands inactive: -15.1%; under `O=C(NC(=O)c1ccc(F)cc1)Nc1ccc(-c2cc(C(F)(F)F)nn2-c2ccccc2)cc1`, inactive: -16.5%.
The same measure for `O=C(NCCc1csc2nc(-c3ccccc3F)nn12)c1ccco1`: inactive: -11.9%; for `CN1C(C(=O)c2ccccc2)=C(OC(=O)c2ccc(Br)cc2)c2ccccc2S1(=O)=O`: inactive: -7.77%; for `Cc1oc2c(c(C)cc3oc(=O)c(CC(=O)NCCc4ccccc4)c(C)c32)c1C`: inactive: 10.8%.
With `CN1CCN(c2cc3c(cc2F)c(=O)c(C(=O)O)cn3-c2ccc(F)cc2)CC1`, the “activation” value was inactive: -7.68%.
`O=C(O)CCCC[C@@H]1SC[C@@H]2NC(=O)N[C@@H]21`: the “activation” value is inactive: -17.9%.
Regarding `COc1cccc(C2C=C(c3ccc(C)c(C)c3)Nc3nnnn32)c1OC` (configuration not stated), the “activation” value is inactive: -9.01%.
The same measure for `Cc1ccc(-c2c(CN3CCN(c4cccc(C(F)(F)F)c4)CC3)csc2C)cc1`: inactive: 2.94%.
Under `CCOC(=O)c1ccc(Nc2nc3ccccc3nc2NS(=O)(=O)c2ccc(Cl)cc2)cc1` stands inactive: -3.22%; under `CCN1CCN(CCCNC(=O)c2cnn(-c3ccccc3)c2C2CCN(C(=O)OC(C)(C)C)CC2)CC1`, inactive: -11.1%.
Consider `COc1ccc(N2CCN(S(=O)(=O)CCNC(=O)C(c3ccccc3)c3ccccc3)CC2)cc1`, for which the “activation” value was inactive: -18.5%.
Under `COCC(=O)Nc1c(I)c(C(=O)NCC(O)CO)c(I)c(C(=O)N(C)CC(O)CO)c1I` (configuration not stated) stands inactive: -5.77%; under `O=C1CSC2(C(=O)N(Cc3ccccc3F)c3ccccc32)N1c1ccc(F)cc1` (configuration not stated), inactive: -33%.
With `COc1cc(NC(=O)c2ccc(C)cc2)ccc1NC(=O)c1cc2ccccc2o1`, the “activation” value was inactive: -0.195%.
As for `Cc1ccc(C)c(CN2C(=O)C(=O)c3ccccc32)c1`, the “activation” value is inactive: -11%.
On to `Cc1cc2nn(-c3ccccc3)nc2cc1NC(=O)c1cccc2c(Cl)cccc12`, for which the “activation” value is inactive: -24.8%.
Turning to `COc1ccc(-n2ccnc2SCC(=O)Nc2ccc(F)cc2F)cc1`, the “activation” value was inactive: -3.34%.
The same measure for `O=C(NCCc1ccccc1)c1ccc(CS(=O)(=O)c2ccc(Br)cc2)o1`: inactive: -10.5%; for `Cc1ccc2onc(CNC(=O)N3CCN(c4cccc(C)c4C)CC3)c2c1`: inactive: -11.9%.
Under `COc1ccc(CCC(=O)N2CCc3c([nH]c4ccccc34)C2c2ccc(F)cc2)cc1` (configuration not stated) stands inactive: -12.4%; under `Cc1coc2ccccc2c1=O`, inactive: -13.3%.
As to `CCSc1nnc2n(-c3cccc(C)c3)c(=O)c3c4c(sc3n12)CCCC4`, the “activation” value was inactive: -18.1%.
The same measure for `CCC(=O)N1c2ccccc2CC1C(=O)NCc1ccc(OC(C)C)cc1` (configuration not stated): inactive: -4.59%.
The same measure for `CCN(CCCNC(=O)Cn1ncc2c([nH]c3ccc(C)cc32)c1=O)c1cccc(C)c1`: inactive: -9.74%; for `Cc1nc2cccnc2n1-c1cccc(C(=O)N2CCN(c3ccc(Cl)cc3)CC2)c1`: inactive: -5.03%; for `CCc1ccccc1NC(=O)c1ccc2c(c1)N(Cc1cccc(Cl)c1)C(=O)c1ccccc1S2(=O)=O`: inactive: -7.19%.
`Cc1csc2nc(-c3cccc(NC(=O)C(C)C)c3)cn12`: the “activation” value is inactive: -12.2%.
On to `CCOC(=O)Nc1ccc(NCc2ccc(F)cc2)nc1N`, for which the “activation” value was inactive: -12.5%.
The same measure for `CCOc1ccc(-c2nc(SCC(=O)Nc3ccc4c(c3)OCO4)c(-c3ccc(F)cc3)[nH]2)cc1`: inactive: -12.6%; for `COc1ccc(C2CC(=O)Nc3c2c(C)nn3-c2nncc(-c3ccc(C)cc3)n2)c(OC)c1OC` (configuration not stated): inactive: -14.9%.
The same measure for `Cc1cccc(CCNC(=O)c2sc3nc4n(c(=O)c3c2C)CCCC4)c1`: inactive: -6.65%.
Under `CCc1ccc(CNC(=O)C2CCN(c3nn4cc(-c5ccc(F)cc5)nc4s3)CC2)cc1` stands inactive: -7.78%; under `Cc1cccc(-c2nnc(C3CCN(S(=O)(=O)c4cccc(Cl)c4)CC3)o2)c1`, inactive: -13.7%; under `COc1cc(C2NC(=O)c3c(sc4c3CCN(C)C4)N2)cc(OC)c1OC` (configuration not stated), inactive: -12.4%.
Take `CCOc1cc2[nH]c(=O)n(Cc3ccc(C(=O)N4CCN(c5cccc(Cl)c5)CC4)cc3)c(=O)c2cc1OCC`: the “activation” value was inactive: -6%.
For `CC(=O)CSc1nnc2[nH]c(=O)cc(N)n12`, the “activation” value is inactive: -23%.
The same measure for `Cn1nc(C(=O)Nc2ccc(F)c(Cl)c2)c2c1-c1ccccc1S(=O)(=O)C2`: inactive: -7.81%.
Consider `O=C(Cn1c(=O)nc(-c2ccccc2)c2cc(Cl)ccc21)N1CCN(c2ccc(F)cc2)CC1`, for which the “activation” value is inactive: -22.4%.
Under `COc1ccc(Br)cc1CN1C(=O)c2ccccc2C1C(=O)NC1CCCCCC1` (configuration not stated) stands inactive: -1.29%; under `CCOC(=O)c1c(C)c(-c2ccccc2)n(CC(=O)NC2CCCCC2)c1C`, inactive: -13.3%.
The same measure for `COC(=O)C1=C(C)NC(C)=C(C(=O)OC(C)C)C1c1cccc2nonc12` (configuration not stated): inactive: -15.9%; for `CCOC(=O)C1CCN(C(c2cccc(F)c2)c2c(O)cc(C)n(CCOC)c2=O)CC1` (configuration not stated): inactive: -39.3%.
With `CCN(C(=O)c1cnc2ccc(C)cn2c1=O)c1ccccc1`, the “activation” value is inactive: -11.1%.
The same measure for `CCOC(=O)c1c(C)[nH]c(C)c1S(=O)(=O)N1CCCC(C(=O)N2CCN(c3cccc(C)c3C)CC2)C1` (configuration not stated): inactive: -7.1%; for `COc1ccc(Cl)cc1NC(=O)c1nn(-c2ccc(C)cc2)c(=O)n(C)c1=O`: inactive: -9.2%.
In the case of `COc1cc(NC(=O)Cn2cnc(S(=O)(=O)N3CCCC3)c2)cc(OC)c1OC`, the “activation” value is inactive: 2.92%.
Regarding `Cc1cccc(CNC(=O)CS(=O)(=O)c2cccc3nsnc23)c1`, the “activation” value was inactive: 0.548%.
The same measure for `O=C(Nc1ccc2c(c1)CCCN2C(=O)c1cccs1)c1ccccc1Cl`: inactive: -17.4%.
Under `CCc1ccc(NC(=O)C2CCN(c3nn4c(=O)cc(C)nc4s3)CC2)cc1` stands inactive: -0.503%; under `Clc1ccc(-c2noc3ncnc(NCCc4ccccc4)c23)cc1`, inactive: -14.2%; under `O=C1OC(OC(=O)c2cccnc2Nc2cccc(C(F)(F)F)c2)c2ccccc21` (configuration not stated), inactive: -27%.
The same measure for `Cc1cc(C)cc(NS(=O)(=O)c2cc3c(cc2C)NC(=O)CO3)c1`: inactive: -5.13%; for `COc1cc(OC)c(Nc2nc3ccc(C(=O)c4ccccc4)cc3n3c(C)nnc23)cc1Cl`: inactive: -12.9%; for `O=C(Nc1ccc(OC(F)(F)F)cc1)c1cc2ccccn2n1`: inactive: -15.7%.
For `O=c1nc2n(-c3ccccc3F)c3ccccc3cc-2c(=O)[nH]1`, the “activation” value was inactive: -22.1%.
The same measure for `CCCCn1cc2c(c1-c1ccc(Cl)cc1)c(=O)n(C)c(=O)n2C`: inactive: -17.6%; for `CCCN(C(=O)Cn1cnc2onc(-c3ccc(F)cc3)c2c1=O)c1cccc(Cl)c1`: inactive: -24.7%.

Source of the values: PubChem BioAssay AID1159614 (National Center for Advancing Translational Sciences (NCATS), 2016).
